Laboratory results taken from paper PMC4336329 (PLoS ONE, 2015).
Hit rate of the full screen: of about 310,000 compounds, about 14,000 (4.5%) showed an effect of 50% or more. Effects have a minus sign here. This is one part of the list.

Target: human ether-à-go-go-related gene (hERG) potassium channel (human, UniProt Q12809)
Experiment: primary screen, population patch clamp on CHO cells stably expressing hERG
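Also: peak tail current of the secondary pulse compared with the same well before compound.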

human ether-à-go-go-related gene (hERG) potassium channel, sequence (Q12809 whole entry, looked up): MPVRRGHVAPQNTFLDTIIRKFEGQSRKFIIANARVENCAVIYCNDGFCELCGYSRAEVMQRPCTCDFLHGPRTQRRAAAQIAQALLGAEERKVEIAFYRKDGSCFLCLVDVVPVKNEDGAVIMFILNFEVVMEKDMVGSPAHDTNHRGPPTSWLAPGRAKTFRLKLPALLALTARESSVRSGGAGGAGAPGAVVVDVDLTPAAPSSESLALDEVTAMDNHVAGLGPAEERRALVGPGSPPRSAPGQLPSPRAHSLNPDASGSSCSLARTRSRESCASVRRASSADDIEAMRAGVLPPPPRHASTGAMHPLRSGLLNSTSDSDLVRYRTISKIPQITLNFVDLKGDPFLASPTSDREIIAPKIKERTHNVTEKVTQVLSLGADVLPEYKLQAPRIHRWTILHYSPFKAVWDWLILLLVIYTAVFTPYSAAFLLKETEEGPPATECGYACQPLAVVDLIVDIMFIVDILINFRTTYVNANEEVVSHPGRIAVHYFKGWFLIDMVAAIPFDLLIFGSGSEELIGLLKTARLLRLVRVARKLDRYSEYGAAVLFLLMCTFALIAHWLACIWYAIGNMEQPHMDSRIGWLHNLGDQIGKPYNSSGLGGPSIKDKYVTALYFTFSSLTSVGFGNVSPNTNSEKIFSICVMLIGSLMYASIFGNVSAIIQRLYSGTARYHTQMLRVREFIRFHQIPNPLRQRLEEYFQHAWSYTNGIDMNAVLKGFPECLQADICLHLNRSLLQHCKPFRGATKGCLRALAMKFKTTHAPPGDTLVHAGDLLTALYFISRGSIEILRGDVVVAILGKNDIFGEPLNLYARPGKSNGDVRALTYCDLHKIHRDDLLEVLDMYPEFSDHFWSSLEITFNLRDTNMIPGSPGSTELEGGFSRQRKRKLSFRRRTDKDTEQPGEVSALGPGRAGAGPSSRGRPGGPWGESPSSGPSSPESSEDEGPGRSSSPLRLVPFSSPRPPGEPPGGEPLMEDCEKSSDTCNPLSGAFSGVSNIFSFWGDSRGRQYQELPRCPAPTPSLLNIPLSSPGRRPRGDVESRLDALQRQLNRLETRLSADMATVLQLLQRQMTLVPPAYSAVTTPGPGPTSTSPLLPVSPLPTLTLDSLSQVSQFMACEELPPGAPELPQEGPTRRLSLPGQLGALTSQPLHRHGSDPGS

| Compound | hERG current change (%, negative = inhibition) at 10uM [%] |
| --- | --- |
| COCCn1c(=N)c(C(=O)NCCc2ccc(OC)cc2)cc2c(=O)n3cccc(C)c3nc21 | -84.8 |
| Cc1cc(NC(=O)CSc2nnc(CNC(=O)c3cccc(C(F)(F)F)c3)o2)no1 | 8.48 |
| Cc1sc2nc(C3CC3)nc(NCCNS(C)(=O)=O)c2c1C | -6.7 |
| CSCC[C@H](NC(=O)Cc1ccc(Cl)cc1)C(=O)N1CCC2(CC1)NCCc1[nH]cnc12 | 19.8 |
| Cc1cccc(NS(=O)(=O)Cc2ccccc2)c1C | 26 |
| O=C(NCc1ccccc1Cl)NC(=O)c1ccccc1 | -2.02 |
| COC(=O)Nc1nnc(Cc2ccccc2)s1 | -3.3 |
| Cc1cc(C)cc(OCc2nnc(SCC(=O)OC(C)C)o2)c1 | 8.21 |
| CC(=O)N1CCN(c2ccc(NCc3cccc(C)c3)cc2)CC1 | 11.5 |
| N=c1c2c(-c3ccccc3)c(-c3ccccc3)n(Cc3ccccc3)c2ncn1CCCn1ccnc1 | -71.2 |
| CCOC(=O)C1=C(c2ccccc2)ON(C)C1c1ccccc1 (centres unmarked) | 12.7 |
| C[N+](C)(C)CCCC(=O)c1ccc2c(c1)OCO2.[Cl-] | 10.4 |
| COc1cccc(NC(C)(C)c2nnnn2-c2c(C)cccc2C)c1 | -63.4 |
| CCOc1ccc(-c2noc(CCCC(=O)NCC3CCCO3)n2)cc1OC (centres unmarked) | 6.17 |
| O=C(CSc1nccc(-c2cccs2)n1)Nc1cccc(Cl)c1 | -1.02 |
| C#CCn1c(=NC(=O)c2cc(-c3cccs3)nc3ccccc23)sc2cc(S(N)(=O)=O)ccc21 | 2.08 |
| CCCCN(C(=O)CSc1nnc(-c2ccc(Cl)cc2)o1)c1c(N)n(CC(C)C)c(=O)[nH]c1=O | 2.52 |
| CCCn1c(C)cc(C(=O)COC(=O)c2cc(S(=O)(=O)NCC(C)C)c(Cl)cc2Cl)c1C | 1.05 |
| Cc1nc(CCNC(=O)COc2ccccc2)cs1 | 17.2 |
| CCn1c(=O)cc(SCC(=O)N2CCN(Cc3ccc4c(c3)OCO4)CC2)c2ccccc21 | -24.8 |
| CSCCC(NC(=O)c1cccc(C)c1)C(=O)Nc1sccc1C(N)=O (centres unmarked) | 9.29 |
| CCCc1cc(C(F)(F)F)c(C#N)c(=O)[nH]1 | 2.55 |
| Cc1ccc(N/C(SCc2ccccc2C)=C(/C#N)C(=O)NCc2ccco2)cc1C | 10.2 |

| Compound | hERG current change (%, negative = inhibition) at 10uM [%] |
| --- | --- |
| CCc1nc(SCC(=O)O)c(C#N)cc1C | 5.22 |
| CCOC(=O)c1cc(-c2ccccc2)nn1-c1ccccn1 | -11.1 |
| CC(C(=O)OCC(=O)c1c(N)n(C)c(=O)n(C)c1=O)N1C(=O)c2ccccc2C1=O (centres unmarked) | -15.2 |
| CCOC(=O)C1CCCCN1Cc1cc(Cl)ccc1O (centres unmarked) | 8.23 |
| CCOC(=O)Cc1csc(NC(=O)Nc2ccccc2)n1 | 2.25 |
| O=C1CC2CS(=O)(=O)CC2N1c1ccc(Cl)cc1Cl (centres unmarked) | 5.75 |
| N#Cc1c(N)n(CCNC(=O)c2ccc(Cl)cc2)c2nc3ccccc3nc12 | 15.3 |
| Cc1nc(SC(C)C)[nH]c(=O)c1Cc1ccccc1 | -11.3 |
| O=C(CN1CCCC1)Nc1cc(C(F)(F)F)ccc1Cl | 2.22 |
| CCN(CC)C(=O)Cn1cnc2sc(C(=O)N3CCN(c4ccc(OC)cc4)CC3)c(C)c2c1=O | 8.32 |
| Cc1cccc(NC(=O)Cn2nc([N+](=O)[O-])c(Br)c2C)n1 | -0.775 |
| CC(C)n1c(NCc2cc(Cl)ccc2O)nc2ccccc21 | 12.6 |
| Cc1cc(C)n(CCC(=O)N/N=C/c2ccc(Cl)c([N+](=O)[O-])c2)n1 | -36.5 |
| CCc1noc(C)c1C(=O)NNC(=O)COc1ccc(Br)cc1 | -18.3 |
| CCOc1ccc(N2C(=O)CN=C2Nc2ccccc2Cl)cc1 | -2.73 |
| O=C(Cc1cc(=O)[nH]c(=O)[nH]1)NCc1ccccc1 | -4.19 |
| CCn1c(O)c(C=Nc2ccc(S(N)(=O)=O)cc2)c(=O)n(CC)c1=S | -23.9 |
| O=C1OC(c2ccc(Br)cc2)=N/C1=C\N1CC2CC(C1)c1cccc(=O)n1C2 (centres unmarked) | -45.2 |
| Cc1cc(=O)oc2cc3oc(=O)cc(C)c3cc12 | 10.1 |
| CCc1nnc(NC(=O)c2ccc(-c3cc(C(F)(F)F)ccc3Cl)o2)s1 | 2.99 |
| O=C(CSCc1c(Cl)cccc1Cl)NCC1CCCO1 (centres unmarked) | -5.26 |
| COc1ccc(CNC(=O)CN(C(=O)CCC(=O)Nc2nccs2)c2ccc(C)cc2)cc1 | 17 |
| O=c1[nH]c(-c2ccc(Cl)cc2)nc(=S)[nH]1 | 10.9 |

| Compound | hERG current change (%, negative = inhibition) at 10uM [%] |
| --- | --- |
| CC1(C)NC(=O)N(CC(=O)OCC(=O)Nc2sccc2C#N)C1=O | 1.07 |
| CCOc1ccc(-n2c([O-])cc(=O)[nH]c2=O)cc1.[NH4+] | 7.42 |
| Cc1sc(N/N=C/c2cccnc2)nc1-c1ccccc1 | 6.85 |
| CCN(C(=O)COC(=O)CSc1ccc([N+](=O)[O-])cc1)C1CCS(=O)(=O)C1 (centres unmarked) | -17.5 |
| COc1ccc(NC(=O)CC2SC(=N)N(c3ccccc3)C2=O)c(OC)c1 (centres unmarked) | 29.4 |
| O=C(O)C1Nc2c(C(=O)N3CCOCC3)cccc2C2C=CCC12 (centres unmarked) | 10.7 |
| COc1ccc(C(=O)Nc2ccccn2)cc1S(=O)(=O)N1CCOCC1 | -8.04 |
| CCc1noc(C)c1C(=O)OCC(=O)N(CC)c1c(N)n(Cc2ccccc2)c(=O)[nH]c1=O | 10.9 |
| O=C1CCC(C(=O)N2CCCC2)CN1Cc1cccc(C(F)(F)F)c1 (centres unmarked) | 6.71 |
| Cl.OCCNc1nc(N2CCN(Cc3ccccc3)CC2)nc2ccccc12 | -68.3 |
| Cc1ccc(CNC(=O)CCNC(=O)N2CCn3c2nc2ccccc23)cc1 | -33.2 |
| O=C1C(Cl)=C(N2CCOCC2)C(=O)N1c1ccccc1Cl | -9.48 |
| COCCNC(=O)NC(=O)COC(=O)c1cccn1C | -1.24 |
| CSc1ccccc1NC(=S)N/N=C/c1cccn1Cc1cccc(C)c1 | 11.3 |
| O=C1COc2ccc(C(=O)COC(=O)c3cccnc3Cl)cc2N1 | 17.5 |
| COc1ccccc1NC(=S)Nc1ccccn1 | 10.7 |
| CCC(NC(C)C)C(O)c1ccc(O)c2[nH]c(=O)ccc12.Cl (centres unmarked) | 7.97 |
| CCOC(=O)C1=C2N(C)c3ccccc3N2CCC1=O | 1.52 |
| O=C(COc1ccccc1F)N1CCN(CCN2C(=O)c3cccc4cccc(c34)C2=O)CC1 | -28.5 |
| CC(OC(=O)CNC(=O)c1ccc(F)cc1)C(=O)Nc1ccc(S(=O)(=O)N2CCOCC2)cc1 (centres unmarked) | -11.2 |
| CCOC(=O)CSc1nc2c(sc(=S)n2-c2ccccc2)c(=O)n1-c1ccc(OC)cc1OC | 23.4 |
| N#C/C(=C\c1cccs1)C(=O)NCc1ccccc1 | 7.73 |
| O=P(COCCCCCOCP(=O)(c1ccccc1)c1ccccc1)(c1ccccc1)c1ccccc1 | -36.9 |

| Compound | hERG current change (%, negative = inhibition) at 10uM [%] |
| --- | --- |
| C=CCn1cc(C(=O)OCC)c(=O)c2cc(F)c(F)cc21 | 13.9 |
| Nc1ncnc2c1ncn2[C@H]1C[C@H](O)[C@@H](CO)O1.O | 22.8 |
| CCN(CC(=O)Nc1cc(OC)ccc1OC)Cc1nc2ccccc2c(=O)[nH]1 | -8.33 |
| O=C(CCC(=O)N1CCOc2ccccc21)NC1CCN(Cc2ccccc2)CC1 | -51 |
| COc1ccccc1/C=N/NC(=O)CC(=O)NCc1ccccc1 | -2.25 |
| C=CCOc1c(CNc2ccc(C(=O)O)cc2)cccc1OC | 16 |
| NC(=O)c1ccc(NC(=O)COC(=O)c2ccc([N+](=O)[O-])cc2)cc1 | -9.46 |
| O=[N+]([O-])c1ccc(CSc2nnc(-c3cccnc3)o2)cc1 | -11.5 |
| CC(Cc1ccccc1)C(=O)N[C@@H](CO)Cc1ccccc1 (some centres unmarked) | 13.5 |
| COc1ccc(C2CC(c3cccc(C)c3)n3ncnc3N2)cc1 (centres unmarked) | -24.8 |
| O=C(NNc1c(Cl)cccc1Cl)C1CCC1 | 22.6 |
| O=C1OCCC1Sc1nc2ccccc2n1-c1ccccc1 (centres unmarked) | -16.6 |
| Cc1cccc(C)c1NC(=O)CN(C)C(=O)CSC(=S)N1CCCC1 | 24.6 |
| CN(Cc1ccccc1)C(=O)CCNC(=O)Cn1cnc2ccccc2c1=O | -5.76 |
| Cc1cc(C)nc(SCc2cc(=O)c(OC(=O)c3cccc([N+](=O)[O-])c3)co2)n1 | -32.5 |
| O=C(COc1ccc([N+](=O)[O-])cc1)Nc1ccncc1 | -36.7 |
| Cc1ccnc(NC(=O)C2CCN(S(=O)(=O)c3ccc(C)c(C)c3)CC2)c1 | 4.97 |
| CN1CCN(NC(=O)c2cn(-c3ccccc3)nc2-c2cccs2)CC1.Cl | -4.71 |
| O=C(c1cc(C2CC2)on1)N1CCCC(N2CCN(c3ccc(F)cc3)CC2)C1 (centres unmarked) | -63.7 |
| COCCOC(=O)C1=C(C)Nc2nc(C)nn2C1c1ccc(F)cc1 (centres unmarked) | -4.76 |
